In patent US20250236654A1, “C-TYPE NATRIURETIC PEPTIDE ENGRAFTED ANTIBODIES” (Bayer Aktiengesellschaft, priority 2018, published 2025):
Residue numbers refer to the chain shown, from its start.

T1: insulin degrading enzyme (IDE) (Rattus norvegicus, UniProt P35559)
T1 construct: purchased Merck 407241-50UG
T1 sequence (P35559 1-1019): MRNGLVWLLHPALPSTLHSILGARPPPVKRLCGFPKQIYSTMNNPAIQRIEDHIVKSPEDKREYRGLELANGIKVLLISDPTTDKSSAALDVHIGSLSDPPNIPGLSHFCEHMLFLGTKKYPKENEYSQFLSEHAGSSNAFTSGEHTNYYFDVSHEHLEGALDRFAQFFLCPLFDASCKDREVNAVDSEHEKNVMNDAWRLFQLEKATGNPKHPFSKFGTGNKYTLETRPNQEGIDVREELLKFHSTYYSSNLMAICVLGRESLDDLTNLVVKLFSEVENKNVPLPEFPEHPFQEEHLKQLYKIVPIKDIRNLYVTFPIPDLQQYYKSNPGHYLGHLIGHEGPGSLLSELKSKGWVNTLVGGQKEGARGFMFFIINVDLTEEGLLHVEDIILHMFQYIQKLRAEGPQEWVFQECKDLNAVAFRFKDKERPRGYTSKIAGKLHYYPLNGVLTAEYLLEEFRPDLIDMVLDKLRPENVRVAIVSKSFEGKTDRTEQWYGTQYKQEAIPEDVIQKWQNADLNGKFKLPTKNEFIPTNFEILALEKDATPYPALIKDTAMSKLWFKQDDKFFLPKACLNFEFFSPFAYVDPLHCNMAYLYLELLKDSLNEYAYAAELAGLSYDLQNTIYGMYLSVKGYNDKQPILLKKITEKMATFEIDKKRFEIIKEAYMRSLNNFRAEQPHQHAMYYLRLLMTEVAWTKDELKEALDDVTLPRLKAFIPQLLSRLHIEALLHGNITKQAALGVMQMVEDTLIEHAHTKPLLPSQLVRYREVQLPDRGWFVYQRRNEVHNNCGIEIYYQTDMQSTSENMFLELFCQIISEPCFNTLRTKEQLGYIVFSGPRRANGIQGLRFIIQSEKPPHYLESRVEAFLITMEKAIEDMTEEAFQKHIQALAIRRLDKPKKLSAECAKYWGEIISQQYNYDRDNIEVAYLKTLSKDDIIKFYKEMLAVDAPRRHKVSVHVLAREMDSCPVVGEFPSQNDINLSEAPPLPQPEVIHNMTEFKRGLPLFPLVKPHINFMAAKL

B1: TPP-10992: ANP engrafted antibody, IgG4 isotype of compound 9; SEQ ID NO 76 and SEQ ID NO 66 (antibody, listed as Homo sapiens)
heavy: EVQLLESGGGLVQPGGSLRLSCAASGFTFGSGSGSGSGSGSPDGGSGGSLRRSSCFGGRMDRIGAQSGLGCNSFRYGSYGSGSGSGSGSGMSWVRQAPGKGLEWVSAISGSGGSTYYADSVKGRFTISRDNSKNTLYLQMNSLRAEDTAVYYCAKLTGAEYFQHWGQGTLVTVSSASTKGPSVFPLAPCSRSTSESTAALGCLVKDYFPEPVTVSWNSGALTSGVHTFPAVLQSSGLYSLSSVVTVPSSSLGTKTYTCNVDHKPSNTKVDKRV[letters of human IgG4 Fc with S228P (EU numbers) left out]
light: QSVLTQPPSVSGAPGQRVTISCTGSSSNIGAGYDVHWYQQLPGTAPKLLIYGNSNRPSGVPDRFSGSKSGTSASLAITGLQAEDEADYYCQSYDSSLSGVVFGGGTKLTVLGQPKAAPSVTLFPPSSEELQANKATLVCLISDFYPGAVTVAWKADSSPVKAGVETTTPSKQSNNKYAASSYLSLTPEQWKSHRSYSCQVTHEGSTVEKTVAPTECS
modifications: NP engrafted HC
B2: TPP-12897: CNP engrafted antibody; heavy chain SEQ ID NO 445, light chain SEQ ID NO 447 (antibody, listed as Homo sapiens)
heavy: EVQLLESGGGLVQPGGSLRLSCAASGFTFSSYAMSWVRQAPGKGLEWVSAISGSGGSTYYADSVKGRFTISRDNSKNTLYLQMNSLRAEDTAVYYCTSVHQETKKYQSSPYKGANKKGLSKGCFGLKLDRIGSMSGLGCGSGGSGSYSYTYNYEWHVDVWGQGTLVTVSS[letters of human IgG1 constant region left out]
light: B1 light with S98D
modifications: NP engrafted HC

Tests used:
[1] = biological target: T1, insulin degrading enzyme (IDE); experiment: Sensitivity towards proteolytic degradation by IDE (activity on receptor cell line after incubation); assay type: in vitro ADME; conditions: 4 hours, 37° C., 0.6 μg/ml IDE
[2] = system: PE-contracted aortic rings; experiment: Vasorelaxation of isolated rat aortic rings contracted by phenylephrine
Method: All experiments were conducted in accordance with institutional guidelines and approved by the local committee on animal experiments. Male Sprague-Dawley rats (weighing 250-300 g) were anesthetized with pentobarbital sodium (40 mg/kg i.p.), killed by decapitation, and exsanguinated. The thoracic aorta was excised and placed in ice-cold Krebs buffer of the following composition: 130 mM NaCl, 14.9 mM NaHCO3, 5.5 mM dextrose, 4.7 mM KCl, 1.18 mM KH2PO4, 1.17 mM MgSO47H2O, and 1.6 mM CaCl22H2O. The vessel was pinned in a Sylgard Petri dish filled with chilled Krebs' solution, cleaned of fat and connective tissue, and cut into ring segments of approximately 3 to 4 mm in length. […] Changes in isometric force were recorded using a PowerLab data acquisition system (software Lab Chart 7.0)
After the equilibration period, aortic rings were challenged with 80 mM KCl to check tissue viability. Next, the endothelial integrity of the preparations was determined by verifying the responsiveness to acetylcholine (ACh, 1 μM) in vessels pre-contracted with Phenylephrine (PE, 1 μM). After wash-out and a period of equilibration, Phenylephrine (PE, 1 μM) was used to induce contraction, thereafter natriuretic peptides and natriuretic peptide engrafted IgGs were evaluated for vasorelaxation.

[3] = system: spontaneously hypertensive rats; experiment: Blood pressure by radiotelemetry in conscious spontaneously hypertensive rats; assay type: in vivo, rat; conditions: intraperitoneal, 30 mg/kg
Method: Female spontaneously hypertensive rats (SHR/N Crl BR, Charles River) with a body weight of 210-300 g were used for these studies. All animals were housed in individual cages at 22-24° C. ambient temperature and maintained on a 12-hour light/dark cycle with free access to standard laboratory rat chow and water ad libitum. Telemeter (HD-10, DSI) implantation was performed a minimum of 14 days before animals were used for blood pressure measurements. Surgery was performed under aseptic conditions. After shaving the abdominal wall, a midline abdominal incision was made, and the fluid-filled sensor catheter was inserted upstream into the exposed descending aorta between the iliac bifurcation and the renal arteries. According to the DSI guidelines the tip of the telemetric catheter was located caudal to the renal arteries and secured by tissue adhesive. The transmitter body was affixed to the inner peritoneal wall before closure of the abdomen. For postsurgical protection against infections and pain a single dosage of an antibiotic (Oxytetracyclin® 10%, 60 mg/kg s.c., 0.06 ml/100 g body weight, Beta-Pharma GmbH & Co, Germany) and analgesic were injected (Rimadyl®, 4 mg/kg s.c., Pfizer, Germany). Telemetric data acquisition was performed by DSI software was predefined to sample hemodynamic data for 10 seconds repeated every 5 minutes. Data collection was started at least 2 hours before drug administration and finished after completion of measurement cycles. Data are expressed as % of basal values±SEM of at least 4 animals per group. The basal value for each animal was calculated as the average of the values measured in two hours prior to substance application (7:00-9:00 AM). Data are then expressed as averages every half hour, starting 15 minutes post application. All animals were treated with a single intraperitoneal (ip) application of test substances dissolved in phosphate buffered saline (PBS). Drug administration took place at 9:00 AM (0 hours).

[4] = system: healthy beagle dogs; experiment: Hemodynamics in conscious telemetered beagle dogs; assay type: in vivo, dog
Method: The effects of TPP-10992 on cardiovascular and ECG parameters after single subcutaneous administration were assessed in a primary pharmacodynamic study in conscious telemetered beagle dogs.
Telemetry devices (DSI™, USA) were surgically implanted to measure blood pressure as well as heart rate, followed by a recovery period to allow wound closure. On the day of the study, telemetry sensors were activated for continuous hemodynamic measurements. The transmitted signals were collected by telemetry receivers located in the animal facility. All collected data were processed by a data acquisition program and averaged over a predefined period of 12 h. As vehicle for TPP-10992 NaCl (0.9%) was used and doses of 0.1 mg/kg, 0.3 mg/kg and 1.0 mg/kg bodyweight were applied via subcutaneous injection.

[5] = Pharmacokinetics after intravenous administration in rat (anti-human IgG ELISA, non-compartmental analysis); assay type: in vivo; conditions: intravenous 5 mg/kg
Method: Determination of in vivo Pharmacokinetic Parameters Pharmacokinetic parameters of TPP-10992 (SEQ ID NO 76 and SEQ ID NO 66) and TPP-5661 (SEQ ID NO 67 and SEQ ID NO 66) were determined after intravenous administration of 5 mg/kg to male Wistar rats (n=3). TPP-10992 and TPP-5661 were given as a bolus injection via the tail vein. Blood samples were collected from the jugular vein via previously implanted catheters in time intervals up to 14 days (336 hours). Generated EDTA-plasma was stored at −20° C. until further analysis.
The quantification of TPP-10992 and TPP-5661 in plasma samples was performed employing an anti-human IgG ELISA (enzyme-linked immunosorbent assay) format. Pharmacokinetic parameters were calculated from plasma concentration time profiles using non-compartmental data analysis.

[6] = biological target: T2, neutral endopeptidase (NEP) (Homo sapiens, UniProt P08473); experiment: Sensitivity towards proteolytic degradation by NEP (activity on receptor cell line after incubation); assay type: in vitro ADME; conditions: 4 hours, 37° C., 0.6 μg/ml NEP
T2 construct: purchased R&D Systems 1182-ZNC

[7] = Pharmacokinetics after intraperitoneal administration in mice (anti-human IgG ELISA); assay type: in vivo; conditions: intraperitoneal 5 mg/kg
Method: Pharmacokinetic parameters of TPP-12897 were determined after intraperitoneal administration to female Balb/c mice (n=3). Blood samples were collected from 15 minutes up to 72 hours post application. Generated EDTA-plasma was stored at −20° C. until further analysis. The quantification of TPP-12897 in plasma samples was performed by an anti-human IgG (Immunoglobulin G) ELISA format.
Pharmacokinetic parameters were calculated from plasma concentration time profiles using non-compartmental data analysis.

T2 sequence (P08473 whole entry): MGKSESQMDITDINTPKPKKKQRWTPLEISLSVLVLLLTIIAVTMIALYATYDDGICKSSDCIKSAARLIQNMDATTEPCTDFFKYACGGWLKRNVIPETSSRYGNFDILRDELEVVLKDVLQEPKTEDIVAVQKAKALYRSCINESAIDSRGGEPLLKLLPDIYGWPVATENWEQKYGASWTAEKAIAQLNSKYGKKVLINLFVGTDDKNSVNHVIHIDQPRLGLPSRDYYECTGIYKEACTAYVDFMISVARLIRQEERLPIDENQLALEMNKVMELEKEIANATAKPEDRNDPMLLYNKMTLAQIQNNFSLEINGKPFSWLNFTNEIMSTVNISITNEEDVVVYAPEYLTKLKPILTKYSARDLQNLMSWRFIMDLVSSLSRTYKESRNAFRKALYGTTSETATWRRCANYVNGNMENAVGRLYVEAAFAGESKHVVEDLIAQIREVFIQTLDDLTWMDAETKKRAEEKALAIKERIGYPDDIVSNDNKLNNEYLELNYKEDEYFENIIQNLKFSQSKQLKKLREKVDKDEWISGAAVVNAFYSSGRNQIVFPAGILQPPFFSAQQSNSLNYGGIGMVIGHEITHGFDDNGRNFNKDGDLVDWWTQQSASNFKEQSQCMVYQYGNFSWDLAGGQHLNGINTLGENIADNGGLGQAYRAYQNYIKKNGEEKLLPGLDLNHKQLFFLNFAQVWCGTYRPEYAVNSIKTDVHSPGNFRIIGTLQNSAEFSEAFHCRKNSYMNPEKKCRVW

Potency (log EC50 values), vasodilation ([2]; endothelium-intact rat aortic rings contracted by phenylephrine (1 μM)) | Molecule | sensitivity/resistance to proteolytic degradation by IDE [1] | vasodilation in PE-contracted aortic rings [2] | duration of effect on MAP [3] | reduction in mean arterial blood pressure (MAP) [3] | time of maximum effect on MAP post application [3] | reduction in blood pressure ([4]; healthy dogs, 0.1, 0.3 and 1.0 mg/kg s.c., significant at 1.0 mg/kg) | effects on heart rate ([4]; healthy dogs, 0.1-1.0 mg/kg s.c.) | duration of reduction in blood pressure ([4]; healthy dogs, single subcutaneous administration) | Mean clearance (CL) [5] | terminal half-life (t1/2) [5] | sensitivity/resistance to proteolytic degradation by NEP [6] | Mean area under the curve (AUC) [7] | terminal half-life (t1/2) [7]
−6.7 | B1 | high resistance | dose-dependent vasodilation | greater than 6 days | approximately 20% | 48 h | dose-dependent and long-lasting | No effects | > 5 days | 6.48 mL/day/kg | 184 h | high resistance | – | –
– | B2 | high resistance | – | – | – | – | – | – | – | – | – | high resistance | 7705 µg·h/mL | 194 h
